# Laboratory results as given in PubChem BioAssay (EPA / NIEHS).
# Certain results were filed several times, with different values. This is not the full list of results. There may be further records. The values listed for one entry are repeated measurements (runs, samples, wells, individuals or studies). Results filed as inconclusive are left out. The calls were made as follows, unless noted: active = hit-call score of the fitted dose curve at least 0.9, where 1 is the maximum; inconclusive = response in the unintended direction; inactive = score below 0.9. More than one record can exist for a structure, and the calls need not agree.
# What was measured:
# [1] = ATG_CMV_CIS: Attagene CIS-FACTORIAL HepG2 Assay for human CMV (Internal Marker) (AID 2282928; active = hit-call score of the fitted dose curve at least 0.9, where 1 is the maximum; inactive = score below 0.9;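 also: endpoint acts as a background internal control marker rather than a target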); settings: HepG2 CMV promoter reporter, transcription factor profiling; actives raise or lower the signal
# In short: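 CMV internal-marker background readout in transiently transfected HepG2 cells bearing cis-regulated reporter units. Reporter mRNA is measured 24 h after dosing by RT-PCR and capillary electrophoresis, with bidirectional fitting against DMSO.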
# [2] = biological target: bovine Estrogen Receptor (ER), ESR1 (gene 407238) (UniProt P49884); experiment: NVS_NR_bER: NovaScreen (NVS) Nuclear Receptor Binding Assay for bovine Estrogen Receptor (ER) (AID 2283345);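 also: actives lower the bound radioligand count which means they displace the ER ligand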
# UniProt P49884, sequence (P49884 whole entry, looked up): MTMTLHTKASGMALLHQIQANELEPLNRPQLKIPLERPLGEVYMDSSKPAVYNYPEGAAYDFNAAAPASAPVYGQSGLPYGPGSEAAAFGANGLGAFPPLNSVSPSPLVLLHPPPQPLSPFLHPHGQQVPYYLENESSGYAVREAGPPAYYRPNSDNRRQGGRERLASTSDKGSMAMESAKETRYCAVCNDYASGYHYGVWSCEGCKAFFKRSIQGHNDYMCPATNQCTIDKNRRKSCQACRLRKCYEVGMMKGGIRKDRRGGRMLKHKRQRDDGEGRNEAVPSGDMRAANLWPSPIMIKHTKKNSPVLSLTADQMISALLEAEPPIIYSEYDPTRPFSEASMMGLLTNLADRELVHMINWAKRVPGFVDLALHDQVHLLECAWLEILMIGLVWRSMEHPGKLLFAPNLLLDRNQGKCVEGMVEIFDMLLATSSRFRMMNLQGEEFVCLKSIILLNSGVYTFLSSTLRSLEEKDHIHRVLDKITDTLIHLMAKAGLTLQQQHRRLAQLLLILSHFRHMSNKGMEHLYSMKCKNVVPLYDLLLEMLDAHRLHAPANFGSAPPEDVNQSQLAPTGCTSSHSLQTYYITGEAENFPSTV
# In short: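 Cell-free radioligand binding with bovine uterine membrane extracts, read 18 hours after dosing by scintillation counting. Loss of signal versus DMSO baseline indicates displacement. Primary screen run in duplicate at 25 uM, actives followed in concentration series.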
# [3] = biological target: Aryl hydrocarbon receptor (Homo sapiens) (UniProt P35869); experiment: ATG_Ahr_CIS: Attagene CIS-FACTORIAL HepG2 Assay for human Aryl Hydrocarbon Receptor (Ahr) (AID 2282930; active = hit-call score of the fitted dose curve at least 0.9, where 1 is the maximum; inactive = score below 0.9); settings: HepG2 AhR cis-factorial reporter transcription; actives raise or lower the signal
# UniProt P35869, sequence (P35869 whole entry, looked up): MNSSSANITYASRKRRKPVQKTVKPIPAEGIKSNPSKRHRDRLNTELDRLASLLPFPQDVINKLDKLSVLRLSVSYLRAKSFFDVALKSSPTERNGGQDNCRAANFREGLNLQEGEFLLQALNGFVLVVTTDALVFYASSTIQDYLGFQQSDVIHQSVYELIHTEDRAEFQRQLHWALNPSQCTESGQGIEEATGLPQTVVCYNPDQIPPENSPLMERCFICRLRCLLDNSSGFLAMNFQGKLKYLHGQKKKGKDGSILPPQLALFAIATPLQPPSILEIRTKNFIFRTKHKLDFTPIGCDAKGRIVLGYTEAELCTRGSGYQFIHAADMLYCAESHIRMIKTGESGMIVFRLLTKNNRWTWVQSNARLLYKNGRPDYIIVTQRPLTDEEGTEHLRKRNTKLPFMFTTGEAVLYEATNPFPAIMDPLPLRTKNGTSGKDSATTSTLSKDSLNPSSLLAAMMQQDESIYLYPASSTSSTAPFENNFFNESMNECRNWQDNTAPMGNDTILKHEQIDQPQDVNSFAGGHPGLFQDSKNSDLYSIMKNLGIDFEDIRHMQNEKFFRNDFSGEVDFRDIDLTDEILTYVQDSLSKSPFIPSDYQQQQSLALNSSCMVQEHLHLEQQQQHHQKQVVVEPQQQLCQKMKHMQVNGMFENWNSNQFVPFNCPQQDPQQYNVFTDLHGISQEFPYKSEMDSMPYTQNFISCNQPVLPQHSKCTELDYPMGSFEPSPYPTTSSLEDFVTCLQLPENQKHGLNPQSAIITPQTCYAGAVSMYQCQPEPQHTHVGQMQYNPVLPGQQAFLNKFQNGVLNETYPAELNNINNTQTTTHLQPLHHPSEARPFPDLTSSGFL
# In short: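 HepG2 cells transiently transfected with cis-element-driven multiplexed reporter transcription units; endogenous transcription factor activity measured as reporter mRNA 24 h after dosing. RT-PCR, 6-FAM labelling, HpaI digestion, capillary electrophoresis; bidirectional fitting versus DMSO baseline.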
# [4] = ATG_NRF2_ARE_CIS: Attagene CIS-FACTORIAL HepG2 Assay for human Nuclear Factor Erythroid 2 Related Factor 2 (NFR2) response to Antioxidant Response Elements (ARE) (AID 2282992; active = hit-call score of the fitted dose curve at least 0.9, where 1 is the maximum; inactive = score below 0.9;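 also: reporter mRNA level measured by RT-PCR and capillary electrophoresis fluorescence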); settings: HepG2 Attagene ARE/NRF2 reporter, transcription factor activity; actives raise or lower the signal
# In short: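 HepG2 cells transiently transfected with multiplexed cis-element reporter constructs, 24 h after chemical dosing; reporter mRNA quantified by RT-PCR, fluorescent primer extension, HpaI digestion and capillary electrophoresis. Bidirectional fit relative to DMSO.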
# [5] = ATG_ISRE_CIS: Attagene CIS-FACTORIAL HepG2 Assay for human Interferon Regulatory Factor 1 (IRF1) binding to an Interferon-Stimulated Response Element (ISRE) (AID 2282948; active = hit-call score of the fitted dose curve at least 0.9, where 1 is the maximum; inactive = score below 0.9); settings: HepG2 ISRE cis-reporter (Attagene), mRNA transcription readout; actives raise or lower the signal
# In short: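 Transiently transfected HepG2 cells carrying cis-element reporter units, dosed 24 hours. Reporter mRNA quantified by RT-PCR, fluorescent primer extension, HpaI digestion and capillary electrophoresis. Bidirectional fitting relative to DMSO.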
# [6] = ATG_PPRE_CIS: Attagene CIS-FACTORIAL HepG2 Assay for human Peroxisome Proliferator-activated Response Element (PPRE) (AID 2282958; active = hit-call score of the fitted dose curve at least 0.9, where 1 is the maximum; inactive = score below 0.9); settings: HepG2 PPRE cis-element reporter, Attagene transcription factor profiling; actives raise or lower the signal
# In short: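 Cells are first transfected transiently with the multiplexed reporter library, then dosed for 24 h. Total RNA is reverse-transcribed, amplified, fluorescently end-labeled and HpaI-cut before capillary electrophoresis; activity is fitted bidirectionally against DMSO controls.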
# [7] = ATG_Oct_MLP_CIS: Attagene CIS-FACTORIAL HepG2 Assay for human Octamer-Binding Transcription Factor (Oct) (AID 2282993; active = hit-call score of the fitted dose curve at least 0.9, where 1 is the maximum; inactive = score below 0.9); settings: HepG2 Attagene cis-factorial Oct reporter, mRNA; actives raise or lower the signal
# In short: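 Read-out: reporter mRNA via RT-PCR plus capillary electrophoresis of 6-FAM-labelled fragments. Transiently transfected HepG2, 24 h exposure, endogenous TF activity on cis elements. Gain or loss of signal fitted relative to DMSO.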
# [8] = biological target: Cellular tumor antigen p53 (Homo sapiens) (UniProt P04637); experiment: ATG_p53_CIS: Attagene CIS-FACTORIAL HepG2 Assay for human p53 Transcription Factor (AID 2282994; active = hit-call score of the fitted dose curve at least 0.9, where 1 is the maximum; inactive = score below 0.9); settings: HepG2 p53 cis-element reporter, Attagene mRNA; actives raise or lower the signal
# UniProt P04637, sequence (P04637 whole entry, looked up): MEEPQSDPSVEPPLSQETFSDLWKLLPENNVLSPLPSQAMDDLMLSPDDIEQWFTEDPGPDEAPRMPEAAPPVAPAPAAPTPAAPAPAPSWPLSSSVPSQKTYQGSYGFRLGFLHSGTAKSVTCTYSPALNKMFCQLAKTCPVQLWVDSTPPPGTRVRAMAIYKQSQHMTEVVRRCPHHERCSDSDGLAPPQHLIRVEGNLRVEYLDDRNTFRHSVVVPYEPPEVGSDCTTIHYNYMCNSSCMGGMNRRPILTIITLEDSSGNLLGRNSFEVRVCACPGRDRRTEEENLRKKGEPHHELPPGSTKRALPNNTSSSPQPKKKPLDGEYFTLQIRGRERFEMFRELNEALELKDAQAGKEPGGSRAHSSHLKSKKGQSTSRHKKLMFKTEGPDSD
# In short: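 HepG2 cells transiently transfected with cis-regulated multiple reporter transcription units, dosed 24 h. Reporter mRNA measured by RT-PCR, 6-FAM primer extension, HpaI digestion and capillary electrophoresis; bidirectional fit relative to DMSO.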
# [9] = ATG_ERE_CIS: Attagene CIS-FACTORIAL HepG2 Assay for Estrogen Response Element (ERE) (AID 2282940; active = hit-call score of the fitted dose curve at least 0.9, where 1 is the maximum; inactive = score below 0.9); settings: HepG2 ERE cis-reporter, Attagene RNA transcript; actives raise or lower the signal
# In short: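 Readout: reporter mRNA induction by RT-PCR, FAM-labelled primer extension, HpaI digestion and capillary electrophoresis, 24 h after dosing transfected HepG2 cells. Endogenous transcription factors act on cis-element-regulated reporters. Gain or loss fitted against DMSO.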
# [10] = biological target: Estrogen receptor (Homo sapiens) (UniProt P03372); experiment: ATG_ERa_TRANS: Attagene TRANS-FACTORIAL HepG2 Assay for human Estrogen Receptor alpha (ERa) (AID 2282970); settings: HepG2 Attagene TRANS ERa GAL4 reporter, mRNA
# In short: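 Multiplexed cell-based reporter format in HepG2: chimeric ERa-Gal4 protein drives GAL4-UAS reporter transcription. Fluorescent reporter mRNA quantified by capillary electrophoresis 24 hours after dosing; endpoint fitted as signal gain against DMSO.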
# [11] = biological target: Nuclear receptor subfamily 1 group I member 2 (Homo sapiens) (UniProt O75469); experiment: ATG_PXR_TRANS: Attagene TRANS-FACTORIAL HepG2 Assay for human Pregnane X Receptor (PXR) (AID 2283008)
# UniProt O75469, sequence (O75469 whole entry, looked up, the tested form may be a part): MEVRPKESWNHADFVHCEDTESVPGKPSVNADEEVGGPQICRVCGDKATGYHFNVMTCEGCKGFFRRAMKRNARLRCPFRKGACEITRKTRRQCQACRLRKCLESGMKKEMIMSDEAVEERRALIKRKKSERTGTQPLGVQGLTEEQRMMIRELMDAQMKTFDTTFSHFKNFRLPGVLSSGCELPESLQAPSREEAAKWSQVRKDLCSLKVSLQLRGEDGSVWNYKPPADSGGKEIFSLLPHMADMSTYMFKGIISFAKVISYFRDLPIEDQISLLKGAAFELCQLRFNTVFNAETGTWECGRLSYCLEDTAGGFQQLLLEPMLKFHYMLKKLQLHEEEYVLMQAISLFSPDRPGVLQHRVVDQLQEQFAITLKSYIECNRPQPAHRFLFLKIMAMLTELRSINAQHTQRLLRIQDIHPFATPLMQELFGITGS
# In short: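 HepG2 cells transiently transfected with GAL4-UAS reporter units and PXR-Gal4 chimera, exposed 24 h. Reporter mRNA quantified by RT-PCR, fluorescent labelling, HpaI digestion and capillary electrophoresis; gain of signal vs DMSO.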
# [12] = biological target: Estrogen receptor (Homo sapiens) (UniProt P03372); experiment: OT_ER_ERaERa_1440: Odyssey Thera (OT) 24-hour HEK293T Protein-Complementation Assay for Estrogen Receptor-alpha/-alpha Homodimer (AID 2283349);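 also: hits raise fluorescence above DMSO for agonists and antagonists alike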
# In short: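 Readout is the rise in mean fluorescence from reporter fragment complementation when ERα LBD (aa 310-547) units dimerize in HEK293T cells. Measured 24 h after dosing and analysed as increase over DMSO control.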
# [13] = biological target: Estrogen receptor (Homo sapiens) (UniProt P03372); experiment: OT_ER_ERaERa_0480: Odyssey Thera (OT) 8-hour HEK293T Protein-Complementation Assay for Estrogen Receptor-alpha/-alpha Homodimer (AID 2283351);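 also: rise in fluorescence from reassembled reporter fragments on ERα LBD homodimer in nucleus or whole cell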
# In short: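 HEK293T cells stably expressing the human ERα ligand-binding domain (aa 310-547) as a homodimer PCA were dosed with compound for 8 h. Gain of fluorescence intensity versus DMSO vehicle was read by laser scanning cytometry.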
# [14] = biological target: Estrogen receptor (Homo sapiens) + Estrogen receptor beta (Homo sapiens) (UniProt P03372+Q92731); experiment: OT_ER_ERaERb_0480: Odyssey Thera (OT) 8-hour HEK293T Protein-Complementation Assay for Estrogen Receptor-alpha/-beta Heterodimer (AID 2283352)
# In short: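 Human HEK293T cells were treated for 8 hours and receptor heterodimerisation was detected through reconstitution of a fluorescent reporter split between ER-alpha and ER-beta ligand-binding domains. Activity was analysed as gain of signal against DMSO.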
# [15] = biological target: Estrogen receptor beta (Homo sapiens) (UniProt Q92731); experiment: OT_ER_ERbERb_0480: Odyssey Thera (OT) 8-hour HEK293T Protein-Complementation Assay for Estrogen Receptor-beta/-beta Homodimer (AID 2283357);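 also: active means signal gain over DMSO baseline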
# UniProt Q92731, sequence (Q92731 whole entry, looked up, the tested form may be a part): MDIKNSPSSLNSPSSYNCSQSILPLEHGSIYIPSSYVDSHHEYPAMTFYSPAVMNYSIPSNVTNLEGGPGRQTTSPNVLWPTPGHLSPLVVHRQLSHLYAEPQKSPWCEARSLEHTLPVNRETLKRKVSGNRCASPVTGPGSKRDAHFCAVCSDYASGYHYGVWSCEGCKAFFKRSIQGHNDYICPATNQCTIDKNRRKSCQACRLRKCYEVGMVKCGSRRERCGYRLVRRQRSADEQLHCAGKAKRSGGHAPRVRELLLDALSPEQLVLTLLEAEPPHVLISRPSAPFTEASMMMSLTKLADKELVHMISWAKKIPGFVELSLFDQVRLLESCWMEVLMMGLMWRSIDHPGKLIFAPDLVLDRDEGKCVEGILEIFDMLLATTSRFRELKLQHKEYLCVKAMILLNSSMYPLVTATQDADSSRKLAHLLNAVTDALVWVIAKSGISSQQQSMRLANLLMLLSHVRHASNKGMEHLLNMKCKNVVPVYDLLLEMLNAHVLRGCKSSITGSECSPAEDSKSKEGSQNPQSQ
# In short: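 Readout: increase in mean fluorescence intensity (nucleus for agonists; nucleus plus cytoplasm for antagonists) relative to DMSO, from a reporter-fragment complementation of human ER-beta LBD homodimer in HEK293T cells dosed 8 hours.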
# [16] = biological target: Glucocorticoid receptor (Homo sapiens) (UniProt P04150); experiment: NVS_NR_hGR: NovaScreen (NVS) Nuclear Receptor Binding Assay for human Glucocorticoid Receptor (GR) (AID 2283363);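 also: activity is loss of specific radioligand binding signal relative to DMSO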
# UniProt P04150, sequence (P04150 whole entry, looked up): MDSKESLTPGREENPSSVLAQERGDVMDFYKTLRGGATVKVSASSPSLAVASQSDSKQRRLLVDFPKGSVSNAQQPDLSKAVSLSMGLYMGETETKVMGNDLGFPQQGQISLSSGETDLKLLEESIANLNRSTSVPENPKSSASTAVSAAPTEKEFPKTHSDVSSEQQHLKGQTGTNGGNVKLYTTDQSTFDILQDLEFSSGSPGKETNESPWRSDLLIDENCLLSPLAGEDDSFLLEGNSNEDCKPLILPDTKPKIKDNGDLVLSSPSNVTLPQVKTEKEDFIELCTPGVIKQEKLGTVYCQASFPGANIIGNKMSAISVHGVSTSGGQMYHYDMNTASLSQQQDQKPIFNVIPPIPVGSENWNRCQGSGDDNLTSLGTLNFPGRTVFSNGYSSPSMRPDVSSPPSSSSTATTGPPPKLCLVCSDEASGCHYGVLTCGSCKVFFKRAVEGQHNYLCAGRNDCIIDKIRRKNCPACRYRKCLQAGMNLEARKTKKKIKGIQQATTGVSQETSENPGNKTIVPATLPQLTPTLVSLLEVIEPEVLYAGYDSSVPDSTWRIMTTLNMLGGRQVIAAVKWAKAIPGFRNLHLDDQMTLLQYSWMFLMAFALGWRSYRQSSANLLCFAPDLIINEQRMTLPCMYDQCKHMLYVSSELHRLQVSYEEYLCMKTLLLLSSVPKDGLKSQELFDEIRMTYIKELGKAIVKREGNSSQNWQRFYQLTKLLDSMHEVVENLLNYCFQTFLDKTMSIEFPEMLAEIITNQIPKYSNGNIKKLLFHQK
# In short: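 Cell-free radioligand binding with extracted receptor protein, read by filter-based scintillation counting 16 hours after dosing. Loss of specific signal versus DMSO baseline was scored. Primary screen ran in duplicate at 25 uM; actives were followed up in concentration series.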
# [17] = biological target: rat Androgen Receptor (AR), Ar (gene 24208) (UniProt P15207); experiment: NVS_NR_rAR: NovaScreen (NVS) Nuclear Receptor Binding Assay for rat Androgen Receptor (AR) (AID 2283366)
# UniProt P15207, sequence (P15207 whole entry, looked up): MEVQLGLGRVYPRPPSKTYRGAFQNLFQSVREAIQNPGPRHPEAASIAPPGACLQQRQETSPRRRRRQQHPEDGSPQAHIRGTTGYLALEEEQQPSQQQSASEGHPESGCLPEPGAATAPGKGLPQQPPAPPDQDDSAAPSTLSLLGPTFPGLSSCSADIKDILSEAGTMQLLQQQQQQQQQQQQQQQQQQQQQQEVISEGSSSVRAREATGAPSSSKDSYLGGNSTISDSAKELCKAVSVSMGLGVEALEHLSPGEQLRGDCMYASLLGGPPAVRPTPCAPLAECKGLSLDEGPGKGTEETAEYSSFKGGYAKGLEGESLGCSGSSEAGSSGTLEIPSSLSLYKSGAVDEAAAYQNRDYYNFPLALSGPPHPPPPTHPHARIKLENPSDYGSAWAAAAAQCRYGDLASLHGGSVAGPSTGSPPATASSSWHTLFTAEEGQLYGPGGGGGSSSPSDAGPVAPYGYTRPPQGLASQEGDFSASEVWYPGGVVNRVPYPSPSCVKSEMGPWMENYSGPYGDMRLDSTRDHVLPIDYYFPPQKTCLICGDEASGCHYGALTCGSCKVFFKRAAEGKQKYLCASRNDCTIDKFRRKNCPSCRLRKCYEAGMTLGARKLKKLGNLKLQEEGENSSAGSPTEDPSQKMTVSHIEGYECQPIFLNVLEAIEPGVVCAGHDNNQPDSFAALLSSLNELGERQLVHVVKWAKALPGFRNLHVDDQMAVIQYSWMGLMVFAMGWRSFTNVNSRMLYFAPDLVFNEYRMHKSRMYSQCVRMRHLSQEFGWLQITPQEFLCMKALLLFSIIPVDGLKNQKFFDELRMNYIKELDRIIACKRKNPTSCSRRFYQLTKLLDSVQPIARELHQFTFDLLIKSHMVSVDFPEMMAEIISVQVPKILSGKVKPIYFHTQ
# In short: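 Cell-free radioligand binding on extracts of prostate from testosterone-pretreated rats, read by filter-based scintillation counting 18 h after dosing. Loss of bound signal fitted positively versus DMSO; primary screen in duplicate at 25 uM, actives followed up in concentration series.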
# [18] = biological target: Estrogen receptor beta (Homo sapiens) (UniProt Q92731); experiment: OT_ER_ERbERb_1440: Odyssey Thera (OT) 24-hour HEK293T Protein-Complementation Assay for Estrogen Receptor-beta/-beta Homodimer (AID 2283380);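 also: fluorescence gain from ER beta LBD homodimer complementation read by laser scanning cytometry; scored as signal increase over DMSO baseline for both agonists and antagonists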
# In short: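 HEK293T cells stably expressing human ER-beta LBD (aa 310-547) PCA homodimer pair, dosed 24 h; formaldehyde-fixed, Draq5-stained. Readout: increase in nuclear (agonist) or nuclear plus cytoplasmic (antagonist) fluorescence intensity versus DMSO, gain-of-signal fitting.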
# [19] = biological target: Estrogen receptor (Homo sapiens) (UniProt P03372); experiment: OT_ERa_GFPERaERE_0480: Odyssey Thera (OT) 8-hour HeLa Transcription Induction Assay for Estrogen Receptor (AID 2283381; active = hit-call score of the fitted dose curve at least 0.9, where 1 is the maximum; inactive = score below 0.9)
# In short: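 HeLa cells dosed with compound and imaged by fluorescence microscopy at 8 h; GFP induction from an ERE reporter quantified by high-content image analysis and fitted as gain of signal against DMSO baseline.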
# [20] = biological target: Estrogen receptor (Homo sapiens) (UniProt P03372); experiment: OT_ERa_GFPERaERE_0120: Odyssey Thera (OT) 2-hour HeLa Transcription Induction Assay for Estrogen Receptor (AID 2283382)
# In short: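 HeLa cells were dosed with test chemical and read 2 hours later for GFP-ERα/ERE-linked fluorescent protein induction by fluorescence microscopy. Gain-of-signal was fitted relative to DMSO baseline, quantified by high content image analysis.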
# [21] = biological target: Estrogen receptor (Homo sapiens) (UniProt P03372); experiment: NVS_NR_hER: NovaScreen (NVS) Nuclear Receptor Binding Assay for human Estrogen Receptor (ER) (AID 2283348)
# In short: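 Cell-free radioligand binding with protein extracted from MCF7 cells; scintillation counting 18 hours after dosing. Loss of signal versus DMSO baseline read as displacement; primary single-concentration screen at 25 uM in duplicate, actives retested in concentration series.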
smiles,measurement,setting,value
O=c1c(-c2ccc(O)cc2)coc2cc(O)ccc12,AC50,[1],"active: 38.5, 27.7, 38.8, 100 µM [separate samples]"
same,AC50,[2],"active: 863 nM, 1.09 µM, 350 nM, 310 nM [separate samples]"
c1ccc2cc3c(ccc4ccccc43)cc2c1,AC50,[3],"active: 681 nM, 1.41 µM, 396 nM, 1.9 µM [separate samples]"
same,AC50,[4],"active: 711 nM, 1.91 µM, 926 nM, 2.81 µM [separate samples]"
CC#C[C@]1(O)CC[C@H]2[C@@H]3CCC4=CC(=O)CCC4=C3[C@@H](c3ccc(N(C)C)cc3)C[C@@]21C,AC50,[5],"active: 40.1, 27.5, 12.4, 10.4 µM [separate samples]"
same,AC50,[6],"active: 312, 116, 86, 122 nM [separate samples]"
same,AC50,[7],"active: 47.1, 40.1, 9.34, 16.2 µM [separate samples]"
same,AC50,[8],"active: 11.9, 27.3, 8.71, 12.6 µM [separate samples]"
CCC(C)(C)C1CCC(O)CC1 (configuration not stated),AC50,[9],"active: 14.8 µM, 297 nM, 2.76 µM, 42.7 µM [separate samples]"
same,AC50,[10],"active: 26.9, 2.01, 8.92, 27.9 µM [separate samples]"
CC[C@H](c1ccc(O)cc1)[C@@H](CC)c1ccc(O)cc1,AC50,[10],"active: 3.82, 2.28, 1.09, 1.56 nM [separate samples]"
same,AC50,[11],"active: 3.03, 2.17, 8.26, 1.73 µM [separate samples]"
same,AC50,[2],"active: 0.274, 3.34, 3.93, 2.29, 94.7 nM [separate samples]"
same,AC50,[12],"active: 99.8, 68.4, 86.9, 121, 77.1, 6.21 nM [separate samples]"
same,AC50,[13],"active: 51.2, 72.4, 38.3, 24.1, 30, 51.3 nM [separate samples]"
same,AC50,[14],"active: 48.7, 45.2, 125, 29.6, 219, 29.9 nM [separate samples]"
same,AC50,[15],"active: 17.4, 20.4, 14.4, 30, 43.7, 76.9 nM [separate samples]"
same,AC50,[16],"active: 451, 135, 294, 304 nM [separate samples]"
same,AC50,[17],"active: 1.15 µM, 758 nM, 937 nM, 7.13 µM [separate samples]"
same,AC50,[18],"active: 17.4, 18.5, 16.5, 30, 27.1, 190 nM [separate samples]"
same,AC50,[19],"active: 3.81, 3.95, 2.4, 58.1, 20.1 nM [separate samples]"
same,AC50,[20],"active: 3.06, 2.37, 4.77, 29.2, 189 nM [separate samples]"
O=C(O)c1ccccc1C(c1ccc(O)cc1)c1ccc(O)cc1,AC50,[10],"active: 16.4, 32.8, 42.6, 53.6 µM [separate samples]"
same,AC50,[2],"active: 7.6, 17.1, 38.4, 25 µM [separate samples]"
same,AC50,[21],"active: 3.58, 11.9, 13.1, 14.3 µM [separate samples]"
C#C[C@]1(O)CC[C@H]2[C@@H]3CCC4=CC(=O)CC[C@@H]4[C@H]3CC[C@@]21C,AC50,[9],"active: 8.52, 36.4, 30.3, 10.7 nM [separate samples]"
same,AC50,[2],"active: 2.07 µM, 3.43 µM, 1.21 µM, 973 nM [separate samples]"
